# Laboratory results from the supplement of paper PMC7826260.
# The list shows a part of the results. The data describe in vitro nicking of single-stranded DNA by Rep domains for 1 h at 37 °C with 3 µM enzyme; only the middle of the 90-letter strands is printed. Values are log2 of uncut reads against the no-enzyme pool; more negative means more cut, near 0 not cut, and no call is made. Because reads are shares of a total, they shift together, so uncut sequences can rise above 0 when many others are cut.
# Experiments:
# Experiment in all cases: uncleaved DNA left, log2 of reads against the no-enzyme library (log2 ratio); higher = less cleavage (more negative = more Rep cleavage of the k-mer); sequences stand for … in CTCGTCCG…ACCGGAGA
# [1] = system: T1, Rep nickase domain of Muscovy duck circovirus
# T1 sequence (protein, residues 1-111, tag omitted): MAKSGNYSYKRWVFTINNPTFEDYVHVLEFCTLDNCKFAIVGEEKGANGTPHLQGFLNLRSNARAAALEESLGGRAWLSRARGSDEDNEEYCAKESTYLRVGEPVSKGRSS
# Method: (§1)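 A pool of 90-nt single-stranded DNAs with seven random bases just before the constant AC of the nick site (name = the seven bases) was cut by 3 µM recombinant His6-SUMO-tagged Rep nickase domain (300 nM DNA, 50 mM HEPES pH 8.0, 50 mM NaCl, 1 mM MnCl2, 1 h, 37 °C, three replicates). Uncut DNA was amplified and sequenced.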
# [2] = system: T2, Rep nickase domain of banana bunchy top virus
# T2 sequence (protein, residues 1-94, tag omitted): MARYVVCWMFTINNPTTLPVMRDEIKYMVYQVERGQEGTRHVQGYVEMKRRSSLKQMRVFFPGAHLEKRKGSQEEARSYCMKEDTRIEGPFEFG
# Method: as §1
# [3] = system: T3, Rep nickase domain of cabbage leaf curl virus
# T3 sequence (protein, residues 1-116, tag omitted): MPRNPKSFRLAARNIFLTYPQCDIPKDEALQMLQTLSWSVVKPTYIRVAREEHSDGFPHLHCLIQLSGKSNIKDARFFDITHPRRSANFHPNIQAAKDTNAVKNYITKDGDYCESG
# Method: as §1
# [4] = system: T4, Rep nickase domain of chickpea chlorotic dwarf virus
# T4 sequence (protein, residues 1-124, tag omitted): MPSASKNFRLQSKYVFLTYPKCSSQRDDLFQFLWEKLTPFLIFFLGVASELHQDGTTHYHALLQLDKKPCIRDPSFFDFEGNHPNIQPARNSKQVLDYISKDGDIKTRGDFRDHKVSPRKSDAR
# Method: as §1
# [5] = system: T5, Rep nickase domain of faba bean necrotic yellows virus
# T5 sequence (protein, residues 1-98, tag omitted): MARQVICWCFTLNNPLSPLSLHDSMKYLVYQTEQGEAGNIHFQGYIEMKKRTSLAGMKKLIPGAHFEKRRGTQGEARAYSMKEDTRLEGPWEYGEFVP
# Method: as §1
# [6] = system: T6, Rep nickase domain of maize striate mosaic virus
# T6 sequence (protein, residues 1-117, tag omitted): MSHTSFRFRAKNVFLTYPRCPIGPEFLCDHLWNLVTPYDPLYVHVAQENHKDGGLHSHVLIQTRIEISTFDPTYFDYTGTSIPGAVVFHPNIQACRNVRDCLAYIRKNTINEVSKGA
# Method: as §1
# [7] = system: T7, Rep nickase domain of porcine circovirus 2
# T7 sequence (protein, residues 2-116, tag omitted): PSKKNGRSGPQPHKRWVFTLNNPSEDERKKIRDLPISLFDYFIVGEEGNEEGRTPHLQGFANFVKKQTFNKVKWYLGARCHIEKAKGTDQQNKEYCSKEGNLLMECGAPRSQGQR
# Method: as §1
# [8] = system: T8, Rep nickase domain of tomato golden mosaic virus
# T8 sequence (protein, residues 1-124, tag omitted): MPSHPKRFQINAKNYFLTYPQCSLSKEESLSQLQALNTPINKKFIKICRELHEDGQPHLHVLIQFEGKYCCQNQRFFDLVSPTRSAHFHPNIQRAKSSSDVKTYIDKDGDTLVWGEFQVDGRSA
# Method: as §1
# [9] = system: T9, Rep nickase domain of tomato yellow leaf curl virus
# T9 sequence (protein, residues 1-136, tag omitted): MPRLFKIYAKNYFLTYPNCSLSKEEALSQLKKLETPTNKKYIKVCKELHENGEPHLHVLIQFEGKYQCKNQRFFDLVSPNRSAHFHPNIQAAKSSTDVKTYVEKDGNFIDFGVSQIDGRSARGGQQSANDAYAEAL
# Method: as §1
# [10] = system: T10, Rep nickase domain of wheat dwarf virus
# T10 sequence (protein, residues 1-137, tag omitted): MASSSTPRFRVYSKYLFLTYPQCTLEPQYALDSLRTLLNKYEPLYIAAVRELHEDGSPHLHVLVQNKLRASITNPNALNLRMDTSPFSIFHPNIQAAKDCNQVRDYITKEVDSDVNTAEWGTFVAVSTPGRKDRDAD
# Method: as §1
Sequence,uncleaved DNA left (log2) [1],uncleaved DNA left (log2) [2],uncleaved DNA left (log2) [3],uncleaved DNA left (log2) [4],uncleaved DNA left (log2) [5],uncleaved DNA left (log2) [6],uncleaved DNA left (log2) [7],uncleaved DNA left (log2) [8],uncleaved DNA left (log2) [9],uncleaved DNA left (log2) [10]
GACGATC,0.108,0.0285,0.367,0.689,0.0421,0.775,0.0494,0.0306,0.166,0.126
AGCACTT,0.0151,0.00147,0.202,0.629,-0.0045,1.61,-0.111,-0.0536,-0.065,0.00312
ACAATAT,0.129,0.219,-0.0268,-1.09,0.0517,-0.617,0.059,0.159,-0.0161,0.132
TGGCGAC,0.0646,-0.0261,0.056,0.644,-0.0646,0.71,0.141,-0.0672,-0.167,0.0234
TCAAGCG,0.0884,0.0391,-0.765,0.184,0.0783,-0.914,0.216,-0.0351,0.0408,-0.0472
GAAAGTA,-0.0169,0.035,0.13,-0.776,-0.0807,0.369,0.0352,0.0407,0.00718,-0.0646
TTCCATT,0.055,-0.086,0.0368,-1.71,-0.0177,-0.498,-0.802,-0.195,0.0712,-0.0159
AGGGTGC,0.0605,0.0243,-0.137,0.00901,0.0607,-0.547,0.212,-0.0469,0.104,0.0286
AAAGGAG,0.117,-0.00706,0.0955,1.51,0.0566,1.08,0.177,0.053,-0.0977,0.0795
GAGTAGT,-1.49,-2.5,0.122,-0.0216,-2.42,0.228,-3.25,-0.0902,0.177,0.0445
ATATCCA,-0.173,0.0104,-0.103,-1.17,-0.0176,-0.378,-0.181,0.0254,0.049,0.0628
CTAGTTT,0.178,-0.0171,-0.0327,-2.05,0.0729,-0.334,-0.332,0.00426,0.0465,-0.0939
CTGAGAG,0.0589,0.0379,-0.573,-0.291,0.205,-0.936,0.236,0.033,0.124,-0.0879
CTGCCGT,-0.107,-0.224,-0.513,-0.704,-0.188,-0.913,-0.257,-0.222,-0.291,-0.305
AGGGATG,-0.0173,-0.0269,0.0834,0.671,0.0467,0.989,0.125,0.17,-0.054,0.107
TGAATTG,-0.141,-0.0403,-0.269,-0.347,-0.0281,-0.729,0.0978,-0.156,-0.106,-0.124
AATTGAC,-0.0552,-0.161,-0.366,-0.26,0.0199,-1.09,0.0982,-0.0453,0.000444,-0.0685
CGGACCC,0.0206,-0.0282,0.477,1.11,0.0648,1.29,0.12,0.104,-0.0119,0.191
CAATACA,-0.173,0.177,-0.935,-0.745,0.0201,-0.503,-1,-0.00167,0.0344,-0.294
TTTAACG,-0.0317,-0.0732,-0.819,-0.795,-0.0206,-1.28,0.144,0.0209,0.0498,-0.119

Sequence,uncleaved DNA left (log2) [1],uncleaved DNA left (log2) [2],uncleaved DNA left (log2) [3],uncleaved DNA left (log2) [4],uncleaved DNA left (log2) [5],uncleaved DNA left (log2) [6],uncleaved DNA left (log2) [7],uncleaved DNA left (log2) [8],uncleaved DNA left (log2) [9],uncleaved DNA left (log2) [10]
CATAGGC,-0.00266,-0.0308,-0.0286,-0.0254,-0.0488,-0.975,0.0796,-0.0773,0.00732,-0.108
GTAGATG,0.136,0.00111,0.228,0.755,-0.0155,0.94,0.0444,0.0271,-0.0903,-0.0538
ATAGCGT,-0.0895,-0.173,-1.03,-0.451,-0.165,-0.979,0.0151,-0.267,-0.104,-0.155
CTAGCAA,-0.148,0.132,-0.135,-0.275,-0.0706,-1.12,-0.0641,-0.077,-0.0381,0.035
GTAGGAC,-0.0739,0.0606,0.735,1.82,-0.0523,1.92,0.191,0.0453,0.0629,0.138
CTCGTCA,-0.0757,-0.00527,0.018,-0.748,0.023,-0.465,-0.111,-0.00672,0.136,0.0279
CATATCA,0.0176,0.0148,0.251,-0.589,0.0473,0.187,0.041,-0.00542,0.138,0.162
TTCAATT,-0.0291,0.0486,0.0268,-2.08,-0.00851,0.153,-1.12,-0.135,0.000124,0.0361
TGGCTCA,0.0363,0.0653,0.299,0.141,0.127,0.46,-0.0423,0.103,0.161,0.106
CCTCTCA,0.106,0.0818,0.0497,-1.16,0.189,-0.427,-0.0316,0.0161,0.197,0.164
CAATGAT,-0.797,-0.0719,-3.67,-2.75,0.065,-2.43,-3.62,-3.53,-0.111,-3.35
GTTTGAC,0.0112,-0.074,0.278,0.869,-0.0912,1.46,0.0379,-0.0284,-0.0402,-0.0323
CAGACGG,0.103,0.127,0.3,0.924,0.0711,1.44,0.179,0.0803,-0.0607,0.0629
TCGGAGT,0.0486,-0.133,0.0648,0.135,-0.0982,0.219,-0.055,0.00593,-0.135,-0.0184
CTAGCCC,0.0197,-0.0625,0.0385,-0.349,-0.198,-0.491,-0.0388,-0.00601,-0.0384,-0.123
TTCAAAA,0.128,-0.0437,0.211,0.312,0.00705,-0.144,-0.0677,0.134,-0.00807,0.0963
AGTGGAT,-0.0342,-0.109,0.164,1.47,-0.0244,1.73,-0.024,-0.125,-0.266,-0.176
GCTACTG,0.113,0.102,0.021,0.634,0.074,1.61,0.0948,0.128,0.0247,0.124
CACGGGT,0.0539,0.00219,0.253,0.992,-0.14,1.26,0.151,-0.0258,-0.117,-0.0872
GCTTCAT,0.0165,0.0652,0.197,0.62,-0.0911,0.683,-0.201,0.034,0.0701,0.111

Sequence,uncleaved DNA left (log2) [1],uncleaved DNA left (log2) [2],uncleaved DNA left (log2) [3],uncleaved DNA left (log2) [4],uncleaved DNA left (log2) [5],uncleaved DNA left (log2) [6],uncleaved DNA left (log2) [7],uncleaved DNA left (log2) [8],uncleaved DNA left (log2) [9],uncleaved DNA left (log2) [10]
CACTAAG,0.0424,0.0693,-0.609,-0.197,0.0998,-0.979,0.16,-0.0164,0.128,0.0326
TGGGTTC,0.088,-0.0279,0.623,1.19,-0.0256,1.71,0.187,0.0782,0.0406,0.0345
GTGGTAA,0.0467,0.0725,0.382,0.944,-0.0951,1.84,0.0533,0.125,0.0781,0.132
CTTACCA,-0.0985,0.0426,-0.262,-2.53,-0.116,-0.396,-0.733,-0.195,0.0896,0.0628
CTGTTGT,-0.286,-0.358,-0.557,-0.913,-0.144,-1.26,-1.52,-0.385,-0.22,-0.321
GCCACAG,-0.212,-0.016,-0.456,-0.383,-0.142,-0.78,0.11,-0.132,-0.0552,-0.11
GACAAGT,0.0221,0.129,0.349,0.244,0.0596,0.244,-0.227,0.0715,0.128,0.234
ACATAGT,-1.3,-0.061,-0.668,-1.28,-0.0545,-1.22,-3.05,-0.0413,-0.0343,-0.171
ATCTCGG,-0.0114,-0.101,0.453,1.45,-0.00602,1.63,0.00882,0.101,-0.102,-0.000497
AGAGCGC,-0.0101,0.042,-0.152,0.0291,0.124,-0.67,0.154,0.0641,0.136,-0.0214
TCCTCTA,0.0738,-0.138,-0.0144,-0.996,0.0743,-0.221,-0.246,-0.00846,0.0273,-0.0167
CCGTAAG,-0.0558,-0.0617,-0.851,-0.19,-0.116,-0.952,0.157,0.0383,-0.0553,-0.272
CAGAGTA,0.0185,-0.168,-0.0749,-1.52,-0.0125,-0.463,-1.8,0.0955,0.0257,-0.0759
ATTTCAA,-0.107,-0.0274,-0.000607,-0.22,0.0117,-0.624,-0.0533,-0.0236,-0.0497,0.126
CACAAGT,0.0622,-0.0181,-0.0441,-1.05,-0.111,-0.916,-0.64,0.0133,0.0281,-0.0158
TCGTCGT,-0.117,0.00719,-0.335,-0.76,0.0427,-0.995,-0.884,-0.157,-0.109,-0.0317
GGGAGGG,0.103,0.0666,0.755,1.82,-0.0153,2.03,0.204,0.043,-0.0214,0.12
CGAAGCG,0.0454,0.173,-0.638,-0.495,0.0628,-1.06,0.112,0.0331,0.166,0.038
TTCGGTG,0.0868,-0.173,-0.536,-0.938,-0.207,-0.86,0.00234,0.0187,-0.102,-0.0962
ACCGATA,-0.0151,-0.0626,-0.242,-0.854,0.0595,-0.621,0.117,0.0714,0.00307,0.148
